Measurements reported in PubChem BioAssay (NCI).
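Method: 48-hour compound exposure of cells in 96-well plates, five concentrations, linear interpolation of endpoints. GI50 is the concentration that inhibits growth by half. TGI marks complete inhibition of growth.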

Tested on: NCI-H322M lung
Experiment: NCI-60 cell line screen, 48 h

## O=C(CC1Sc2ccccc2NC1=O)Nc1ccc(Cl)cc1 (stereo not drawn)
  TGI: > 100 µM

## Oc1ccc(Cl)cc1Cc1cc(Cl)ccc1O
  GI50: 2.75 µM
  TGI: 9.76 µM

## Nc1ccc(S(=O)(=O)Nc2cnc3c(Cl)cccc3n2)cc1
  GI50: > 86.5 µM
  TGI: > 750 µM

## Cc1nc2ccc(Cl)cc2c2c1CCN2c1ccccc1
  TGI: 49.9 µM

## Cc1ccc(S(=O)(=O)N(CC(O)COc2ccccc2)c2ccc(F)cc2F)cc1 (stereo not drawn)
  TGI: 59.6 µM

## CCOC(=O)C1(C(F)(F)F)N=C(CC)OC(N2CCOCC2)=N1 (stereo not drawn)
  TGI: > 100 µM

## Cc1ccc(/C(O)=C/c2nc3ccc([N+](=O)[O-])cc3nc2/C=C(\O)c2ccc(C)cc2)cc1
  TGI: > 100 µM

## O=[N+]([O-])c1ccc(C(Nc2ccccc2)c2ccc3cccnc3c2O)cc1 (stereo not drawn)
  TGI: > 100 µM

## NS(=O)(=O)c1ccc(NNc2c3ccccc3nc3c(C(=O)Nc4ccc(S(=O)(=O)Nc5ncccn5)cc4)cccc23)cc1
  TGI: > 25 µM

## O=c1cc(-c2ccccn2)[nH]c2ccc(Cl)cc12
  TGI: > 100 µM

## O=c1cc(NCc2ccncc2)[nH]c(=O)[nH]1
  TGI: > 100 µM

## CC1(C2CCC3(C)OC3C2)CO1 (stereo not drawn)
  TGI: > 100 µM

## CC1CC[C@]2(C(=O)O)CCC3(C)C(=CCC4[C@@]5(C)CC[C@H](OS(=O)(=O)c6ccccc6)C(C)(C)C5CC[C@]43C)[C@@H]2[C@H]1C (stereo partly drawn)
  TGI: > 100 µM

## CC/C=C\C/C=C\C[C@H](O)C/C=C1/C(=O)C=C[C@@H]1C/C=C\CCCC(=O)OC
  GI50: 3.12 µM
  TGI: 10.4 µM

## Cn1c2ccccc2n2c3ncccc3c(=S)c(C#N)c12
  TGI: > 100 µM

## COc1ccc(OC)c2c3c(ccc12)C(c1ccccc1)OC3=O (stereo not drawn)
  TGI: > 100 µM

## CC(=O)C1C(=O)N(C(C)C)C[C@@H]2CCC(=O)C[C@H]12 (stereo partly drawn)
  TGI: > 100 µM

## c1ccc(-c2nnn(CCN3CCCCC3)n2)cc1
  TGI: > 100 µM

## CC(=O)Nc1cc(Nc2cc(=O)[nH]c(=O)[nH]2)ccc1C
  TGI: > 100 µM

## COc1cc(NC(=O)Nc2cnc(Nc3ccc(N4CCOCC4)cc3)nc2Oc2cccc(OC)c2)cc(OC)c1
  GI50: 1.79 µM
  TGI: 9.44 µM

## COc1cccc(/C=C/C(=O)c2cc3c(N)c(C(=O)Nc4cccc5ccccc45)sc3nc2C)c1
  GI50: 1.94 µM
  TGI: > 50 µM

## CN(C)c1ccc(/C=C2\N=C(c3ccccc3)N(c3ccc4c(c3)Sc3cc(N5C(=O)/C(=C/c6ccc(N(C)C)cc6)N=C5c5ccccc5)ccc3N4)C2=O)cc1
  TGI: 30.8 µM

## NC1=NCC(CN2CCCC2)O1 (stereo not drawn)
  TGI: > 100 µM

## COc1ccc(C(O)CC(O)(C(F)(F)F)C(F)(F)F)cc1 (stereo not drawn)
  TGI: > 100 µM

## CC(C)OC1OC(CO)C(O)CC1n1cc(F)c(=O)[nH]c1=O (stereo not drawn)
  TGI: > 100 µM

## C(/Cc1ccc2c(c1)OCO2)=N\NC1=NCCCN1
  TGI: > 100 µM

## Cc1cc([N+](=O)[O-])c(C)c(Br)c1C
  TGI: > 100 µM

## COc1cc2cc3c4c(cc(OC)c(OC)c4c2cc1OC)CCN3C(=O)CCC(=O)NCCCN(C)C
  TGI: > 100 µM

## COc1nc(NC2OC(COC(C)=O)C(OC(C)=O)C(OC(C)=O)C2OC(C)=O)c(-c2csc(N)n2)c(=O)n1C (stereo not drawn)
  TGI: > 100 µM

## CC1(C)CC[C@]2(C(N)=O)CC[C@]3(C)C(=CC[C@@H]4[C@@]5(C)C/C(=C/c6ccncc6)C(=O)C(C)(C)[C@@H]5CC[C@]43C)[C@@H]2C1
  GI50: 2.59 µM
  TGI: 11.4 µM

## CCC(CC(C)C)Nc1ccc(NC(CC)CC(C)C)cc1 (stereo not drawn)
  GI50: 34.8 µM
  TGI: > 100 µM

## CC(=O)CC(=O)CCC(=O)O
  TGI: > 100 µM

## C[N+](C)(C)CC1CCCC(C[N+](C)(C)C)C1O (stereo not drawn)
  TGI: > 100 µM

## COc1ccc(CCN=C2CCC(C(=O)NCCc3ccc(OC)c(OC)c3)N2)cc1OC (stereo not drawn)
  TGI: > 100 µM

## COc1c(C)c(C/C=C(\C)CC/C=C(\C)CCC=C(C)C)c(OC)c(OC)c1OC
  TGI: > 100 µM

## N#Cc1nc(C#N)n(C(=O)c2ccccc2)c1NC(=O)c1ccccc1
  TGI: > 100 µM

## N/C(=N\Nc1ccc(S(N)(=O)=O)cc1)c1cnccn1
  TGI: > 100 µM

## COc1cccc(NC(=O)C(=O)C(C(C)=O)c2nc3ccc(Cl)cc3[nH]c2=O)c1 (stereo not drawn)
  TGI: > 100 µM

## Cc1ccc(C(C)C)cc1NC(=O)Nc1ccc([N+](=O)[O-])cc1
  GI50: 3.2 µM
  TGI: 12.7 µM

## C#CCN(Cc1ccc2nc(N)[nH]c(=O)c2c1)c1ccc(C(=O)NC(CCC(=O)O)C(=O)O)cc1 (stereo not drawn)
  TGI: > 100 µM
